The supplement of paper PMC3334620
Whole data set: some 33,000 sequences, median “E-score (-0.5 to 0.5)” near -0.032, cut for the highest 2% near 0.36. The list shows a part of the results.

Target: T1, Sko1 (UniProt Q02100)
T1 sequence: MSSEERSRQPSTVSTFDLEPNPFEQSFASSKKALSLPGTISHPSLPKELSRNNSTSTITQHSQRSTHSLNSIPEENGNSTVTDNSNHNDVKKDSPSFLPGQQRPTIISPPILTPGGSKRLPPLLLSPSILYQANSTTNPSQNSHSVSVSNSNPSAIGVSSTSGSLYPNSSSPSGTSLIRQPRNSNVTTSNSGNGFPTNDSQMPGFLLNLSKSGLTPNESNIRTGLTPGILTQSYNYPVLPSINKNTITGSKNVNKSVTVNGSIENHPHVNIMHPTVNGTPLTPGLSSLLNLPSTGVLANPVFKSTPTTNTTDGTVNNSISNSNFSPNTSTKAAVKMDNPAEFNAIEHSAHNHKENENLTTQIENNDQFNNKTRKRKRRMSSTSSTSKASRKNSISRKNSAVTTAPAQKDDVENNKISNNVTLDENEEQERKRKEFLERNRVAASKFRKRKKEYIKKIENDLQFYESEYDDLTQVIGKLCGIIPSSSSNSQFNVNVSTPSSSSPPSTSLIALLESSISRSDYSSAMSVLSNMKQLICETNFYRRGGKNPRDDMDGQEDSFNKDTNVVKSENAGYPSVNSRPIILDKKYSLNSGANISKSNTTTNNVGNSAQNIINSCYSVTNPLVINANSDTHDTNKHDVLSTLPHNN
Test: PBM E-score (8-mer binding enrichment) (E-score (-0.5 to 0.5)); higher = stronger / more preferred TF binding; most listed sequences are background and not binding sites
Settings: protein concentration: 200 nM; construct: GST-full length
Method in brief: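 Bound GST-tagged yeast transcription factors, applied at about 100-200 nM to double-stranded universal all-10-mer Agilent arrays, were detected with fluorescent anti-GST. Scans were normalised with masliner. A modified Wilcoxon-Mann-Whitney statistic, the E-score, was assigned to each ungapped eight-base word pooled with its reverse complement by the Universal PBM Analysis Suite.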

Sequence | PBM E-score
ATCTTTTA | 0.245
ACGCGTCT | 0.192
GACGTCAA | 0.47
AACCCTAA | -0.0979
ATAGAAGG | -0.281
AGCCCCTG | -0.282
GCAAGTGC | -0.199
CTGCGCTC | -0.243
AGTGCCCG | -0.249
AACGTAAA | 0.425
ATGATGTG | 0.379
ATAGGTCC | -0.0691
AGATTTTC | 0.0522
CGTCAGAC | 0.394
CGTCCGAA | 0.0395
GTCTTTTA | 0.0889
AACGGCGC | -0.319
CACGGCAG | -0.147
TCTCGACA | 0.0905
CTGGTTTA | -0.0494
CACCTAAC | -0.0307
GCTTTCGA | -0.209
AGTACACA | 0.0979
CCACTTCG | -0.137
CAACTGTA | 0.116

Sequence | PBM E-score
ATGTCAGG | 0.0993
CCCGAGGA | -0.31
ATTGTTTC | 0.146
CGACGCAG | 0.0186
TCCCGTAA | 0.11
AACAGCTG | -0.0414
AACTGCAC | 0.0155
GCTGAAGA | -0.196
AGAGAAAG | -0.108
CAGCTACC | -0.155
CAATCCGG | -0.0752
ATTGCTCA | 0.185
AGATTGTG | -0.055
ATTTGCTC | -0.157
CAGCGGAC | -0.226
AAGACAAA | 0.254
TAAAGGTA | -0.107
CTTTGATC | -0.0354
CACTAAAG | -0.0266
ATTACAAC | 0.169
ATACCTCA | 0.109
CTGGATTC | -0.0624
CAGCCCTG | -0.176
ACTTCCTC | -0.284
GCTCCCAC | -0.193

Sequence | PBM E-score
AGCTGCCA | -0.168
CAAACTAC | 0.179
CGTTCCGC | -0.102
CCAGATCG | -0.0595
CGCAACAG | 0.201
CCCACTTA | 0.0109
ATTTTCAA | 0.149
ACATAGAA | -0.0238
AAGTCGGC | -0.291
ACCAGTCG | 0.0271
AATTTACG | 0.332
ATCGTGTC | 0.0213
CAGAGAAA | 0.125
GGTACGAA | 0.19
AGGCGAAT | -0.0114
GCTCACAC | -0.0342
GAGATGCA | -0.0586
ATGCTGGG | -0.231
CGCTTGAA | 0.0677
CAATCCCA | -0.15
ATACATGG | 0.0827
ATCAGAGG | 0.0108
ACGTGAGG | 0.276
ATTAATGA | 0.161
AAACAATC | 0.0366

Sequence | PBM E-score
AGGGGCGC | -0.223
AAACTTTC | -0.0546
AAGGAGCC | -0.344
ACAGGCGT | -0.222
ATCTTTAA | 0.136
ACTTATAT | 0.234
CTTTGATA | 0.0615
AGGAGGAG | -0.247
CGGTGTTC | -0.134
AAAGCCCC | -0.258
CCATGCTC | -0.247
CTCTGTGC | -0.184
CAAAAGAA | 0.191
CAAGATTA | 0.11
CTTGTCTC | -0.264
CAAAGCAG | 0.0225
CGGTATCA | 0.00148
CCAACGGG | -0.254
AGAACATG | 0.0335
GACGTCCC | 0.217
AGGTCGGA | -0.0835
CATGTATC | 0.171
GCCCTTCA | -0.126
TGCTTAAA | 0.0693
TAAACCAA | 0.159

Sequence | PBM E-score
ATTTACTC | 0.091
AGCGTAAT | 0.366
CGGCTGCC | -0.279
TCCAGTCA | -0.0884
GATTTAGC | -0.0714
AGGATGTG | -0.206
ACGGGCCG | -0.232
ATAGACAT | -0.0372
CTTCGGCC | -0.0373
GCATGACA | 0.214
GGAGACCC | -0.312
GATTGCCA | -0.162
CTGCGTTA | 0.0283
AACCAAAT | 0.0129
ATCCACAG | -0.132
ATTATGAG | 0.18
AGTCTTCA | -0.118
AGTAGGGG | -0.195
AACGAGGC | -0.106
AAAGTTGT | 0.135
GAGCAACC | -0.0456
GGCTGTGA | -0.2
CGAACGGC | -0.171
ATTAGACG | 0.191
ATTGAATA | 0.271

Sequence | PBM E-score
GGACACAC | -0.0616
CACTAGGG | -0.289
AGTACAAC | -0.135
ACTCAGGG | -0.303
CGAGCGCG | 0.00482
CCTAGTTC | -0.0891
CAATGCGG | -0.198
AAGTATAG | -0.089
AGCTACCT | -0.0397
TCTGGGAA | -0.00346
TATTTTCA | 0.145
ACTCGTCG | 0.0478
AATCGACA | 0.151
ATTGCGAG | -0.0027
GCCACCAA | -0.0477
CACACCAA | 0.148
ATGTCATA | 0.41
CTGCTCCA | -0.14
AGCTTTTG | -0.0101
TCGTCGAA | 0.118
GTTCTAGA | -0.0486
GAGTCTTA | -0.109
GGTCTCCA | -0.19
CCTTGACG | 0.275
AATTACGA | 0.411

Sequence | PBM E-score
AGCCGCGC | -0.168
AGAGCGTG | -0.192
CCATGACC | -0.0889
CTTATCTA | 0.186
ATGCGAAA | 0.128
CACAAGGG | -0.341
AGGTGGCC | -0.218
AGTGGGAC | -0.111
ATAAGTAG | -0.00432
ACACAGGT | -0.14
AATGAAGA | 0.118
CCTTCCAG | -0.214
GGCCCGCA | -0.221
AGATGCCA | -0.0921
AGAGGTAA | 0.00195
GATCCGAA | -0.153
TATGATCA | 0.259
ATGGAACA | -0.169
AGGGAAAC | -0.0869
CGTTAAAC | 0.198
CACTAAAA | 0.0614
CCCTTAGC | -0.281
